# From US12630643B2, “CD40 binding protein, bispecific conjugate thereof and method of treating cancer” (priority 2020, dated 2026)
# Target: interaction between CD40 ligand (CD40L) and human CD40 (Homo sapiens, UniProt P25942)
# Assay: CD40 ligand inhibition by SPR
# Conditions: 20 nM hCD40-Fc pre-incubated with 10 times molar excess of CD40 ligand
# Sequence of interaction between CD40 ligand (CD40L) and human CD40 (P25942 21-193): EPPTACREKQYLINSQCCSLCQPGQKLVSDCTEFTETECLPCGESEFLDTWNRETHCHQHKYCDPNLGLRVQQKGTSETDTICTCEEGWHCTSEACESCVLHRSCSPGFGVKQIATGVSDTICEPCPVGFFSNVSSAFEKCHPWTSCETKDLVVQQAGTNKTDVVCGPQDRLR
substance,measurement,value
"X-SM083-ab-5: agonistic anti-CD40 antibody CP-870,893 (US 2017/0342159) as hIgG2 [reference compound]",binding to CD40-Fc with CD40 ligand present,unaffected by the presence of CD40 ligand
